Assay results from the supplement of paper PMC12217912.
The other results are listed elsewhere or left out. The full chains were built here from the parent and the listed change. Inactive controls read about 0.05.

B1: TEV protease; numbered along this chain (parent)
chain: MGESLFKGPRDYNPISSSICHLTNESDGHTTSLYGIGFGPFIITNKHLFRRNNGTLVVQSLHGVFKVKDTTTLQQHLVDGRDMIIIRMPKDFPPFPQKLKFREPQREERICLVTTNFQTKSMSSMVSDTSCTFPSGDGIFWKHWIQTKDGQCGSPLVSTRDGFIVGIHSASNFTNTNNYFTSVPKNFMELLTNQEAQQWVSGWRLNADSVLWGGHKVFMVKPEEPFQPVKEATQL

Variants of: B1
Test: raw area under fraction-flipped curve 0-4 h after induction (AUC4h, not background-subtracted), DNA-recorder readout of cleavage of the substrate (dimensionless); higher = more cleavage of the substrate by the protease variant
Conditions: temperature: 34 °C; time window: 0-4 h after rhamnose induction
Method: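 In vivo DNA recorder in E. coli TOP10(DE3) ΔrhaA at 34 °C. Each TEVp single-site mutant (parent TEVp 0) is paired with a single-site variant of the 7-mer TEVs (canonical ENLYFQ|S). The substrate sits between flexible linkers in a Bxb1-sfGFP-TEVs-SsrA fusion, so cleavage stabilises Bxb1 and speeds flipping of a recombination array, read by NGS. The value is the raw area under the fraction-flipped curve over 0-4 h after rhamnose induction (AUC4h), with ≥20 reads per time point. It is not background-subtracted; inactive controls average about 0.047.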
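Also: Bxb1 expression induced with 0.2% (w/v) L-rhamnose at OD600 near 0.5, cultures sampled hourly, flipped fraction per protease–substrate barcode pair counted by paired-end Illumina sequencing.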

| Variant | area with substrate ENLYFQA | area with substrate ENLYFQC | area with substrate ENLYFQD | area with substrate ENLYFQF | area with substrate ENLYFQH | area with substrate ENLYFQK | area with substrate ENLYFQM | area with substrate ENLYFQN | area with substrate ENLYFQP | area with substrate ENLYFQR | area with substrate ENLYFQS | area with substrate ENLYFQT | area with substrate ENLYFQV | area with substrate ENLYFQW | area with substrate ENLYFQY | area with substrate ENLYFQE | area with substrate ENLYFQG | area with substrate ENLYFQL | area with substrate ENLYFQQ | area with substrate ENLYFQI |
| --- | --- | --- | --- | --- | --- | --- | --- | --- | --- | --- | --- | --- | --- | --- | --- | --- | --- | --- | --- | --- |
| MGESLFKGPRDYNPISSSICHLTNESDGHTTSLYGIGFGPFIITNKHLFRRNNGTLVVQSLHGVFKVKDTTTLQQHLVDGRDMIIIRMPKDFPPFPQKLKFREPQREERICLVTTNFQTKSMSSMVSDTSCTFPSGDGIFWKWWIQTKDGQCGSPLVSTRDGFIVGIHSASNFTNTNNYFTSVPKNFMELLTNQEAQQWVSGWRLNADSVLWGGHKVFMVKPEEPFQPVKEATQL [H143W] | 0.0604 | 0.0642 | 0.0624 | 0.0567 | 0.0632 | 0.057 | 0.0598 | 0.0722 | 0.0477 | 0.0562 | 0.0593 | 0.0516 | 0.054 | 0.066 | 0.0585 | – | – | – | – | – |
| MGESLFKGPRDYNPISSSICHLTNESDGHTTSLYGIGFGPFIITNKHLFRRNNGTLVVQSLHGVFKVKDTTTLQQHLVDGRDMIIIRMPKDFPPFPQKLKFREPQREERICLVTTNFQTKSMSSMVSDTSCTFPSGDGIFWKKWIQTKDGQCGSPLVSTRDGFIVGIHSASNFTNTNNYFTSVPKNFMELLTNQEAQQWVSGWRLNADSVLWGGHKVFMVKPEEPFQPVKEATQL [H143K] | 0.0482 | 0.0507 | – | – | 0.0485 | 0.0565 | 0.0695 | 0.055 | 0.0548 | – | 0.0576 | 0.0651 | 0.0535 | 0.0523 | 0.049 | 0.0723 | 0.0581 | 0.05 | 0.0495 | – |
| MGESLFKGPRDYNPISSSICHLTNESDGHTTSLYGIGFGPFIITNKHLFRRNNGTLVVQSLHGVFKVKDTTTLQQHLVDGRDMIIIRMPKDFPPFPQKLKFREPQREERICLVTTNFQTKSMSSMVSDTSCTFPSGDGMFWKHWIQTKDGQCGSPLVSTRDGFIVGIHSASNFTNTNNYFTSVPKNFMELLTNQEAQQWVSGWRLNADSVLWGGHKVFMVKPEEPFQPVKEATQL [I139M] | 0.112 | 0.105 | – | – | 0.0782 | 0.0654 | 0.0811 | 0.0945 | 0.0505 | 0.0491 | 0.116 | 0.078 | 0.0527 | – | 0.0768 | – | 0.102 | 0.0652 | 0.0538 | 0.0591 |
| MGESLFKGPRDYNPISSSICHLTNESDGHTTSLYGIGFGPFIITNKHLFRRNNGTLVVQSLHGVFKVKDTTTLQQHLVDGRDMIIIRMPKDFPPFPQKLKFREPQREERICLVTTNFQTKSMSSMVSDTSCTFPSGDGYFWKHWIQTKDGQCGSPLVSTRDGFIVGIHSASNFTNTNNYFTSVPKNFMELLTNQEAQQWVSGWRLNADSVLWGGHKVFMVKPEEPFQPVKEATQL [I139Y] | 0.0749 | – | 0.0643 | – | – | – | – | 0.075 | 0.0608 | 0.0541 | 0.113 | – | 0.0321 | 0.0534 | – | – | 0.0939 | 0.0705 | – | 0.038 |
| MGESLFKGPRDYNPISSSICHLTNESDGHTTSLYGIGFGPFIITNKHLFRRNNGTLVVQSLHGVFKVKDTTTLQQHLVDGRDMIIIRMPKDFPPFPQKLKFREPQREERICLVTTNFQTKSMSSMVSDTSCTFPSGCGIFWKHWIQTKDGQCGSPLVSTRDGFIVGIHSASNFTNTNNYFTSVPKNFMELLTNQEAQQWVSGWRLNADSVLWGGHKVFMVKPEEPFQPVKEATQL [D137C] | 0.0987 | 0.099 | – | 0.0643 | – | 0.0758 | 0.0789 | – | – | 0.0485 | 0.0981 | – | 0.0619 | 0.054 | – | – | 0.04 | 0.0589 | – | 0.0694 |
| MGESLFKGPRDYNPISSSICHLTNESDGHTTSLYGIGFGPFIITNKHLFRRNNGTLVVQSLHGVFKVKDTTTLQQHLVDGRDMIIIRMPKDFPPFPQKLKFREPQREERICLVTTNFQTKSMSSMVSDTSCTFPSGDGIFWHHWIQTKDGQCGSPLVSTRDGFIVGIHSASNFTNTNNYFTSVPKNFMELLTNQEAQQWVSGWRLNADSVLWGGHKVFMVKPEEPFQPVKEATQL [K142H] | 0.0831 | 0.126 | 0.0893 | 0.0813 | 0.079 | 0.0639 | 0.0763 | 0.0758 | 0.0699 | 0.0597 | 0.105 | 0.0726 | 0.06 | 0.0613 | 0.0892 | 0.0659 | 0.101 | 0.0665 | 0.0801 | 0.0617 |
| MGESLFKGPRDYNPISSSICHLTNESDGHTTSLYGIGFGPFIITNKHLFRRNNGTLVVQSLHGVFKVKDTTTLQQHLVDGRDMIIIRMPKDFPPFPQKLKFREPQREERICLVTTNFQTKSMSSMVSDTSCTFPSGDGIFQKHWIQTKDGQCGSPLVSTRDGFIVGIHSASNFTNTNNYFTSVPKNFMELLTNQEAQQWVSGWRLNADSVLWGGHKVFMVKPEEPFQPVKEATQL [W141Q] | 0.0699 | 0.0719 | – | 0.0572 | 0.0514 | 0.0494 | 0.0453 | 0.0359 | 0.0614 | 0.0586 | 0.0635 | 0.0526 | – | – | 0.0521 | – | 0.0445 | 0.0509 | – | 0.0549 |
| MGESLFKGPRDYNPISSSICHLTNESDGHTTSLYGIGFGPFIITNKHLFRRNNGTLVVQSLHGVFKVKDTTTLQQHLVDGRDMIIIRMPKDFPPFPQKLKFREPQREERICLVTTNFQTKSMSSMVSDTSCTFPSGDGIFGKHWIQTKDGQCGSPLVSTRDGFIVGIHSASNFTNTNNYFTSVPKNFMELLTNQEAQQWVSGWRLNADSVLWGGHKVFMVKPEEPFQPVKEATQL [W141G] | 0.0482 | 0.0478 | 0.0514 | – | 0.0442 | 0.0986 | 0.0417 | 0.0704 | 0.0538 | 0.0532 | 0.0575 | 0.052 | – | 0.0516 | 0.0774 | – | 0.0603 | 0.056 | – | 0.0497 |
| MGESLFKGPRDYNPISSSICHLTNESDGHTTSLYGIGFGPFIITNKHLFRRNNGTLVVQSLHGVFKVKDTTTLQQHLVDGRDMIIIRMPKDFPPFPQKLKFREPQREERICLVTTNFQTKSMSSMVSDTSCTFPSGDGIEWKHWIQTKDGQCGSPLVSTRDGFIVGIHSASNFTNTNNYFTSVPKNFMELLTNQEAQQWVSGWRLNADSVLWGGHKVFMVKPEEPFQPVKEATQL [F140E] | 0.0605 | 0.0673 | – | – | – | 0.064 | 0.0621 | 0.0617 | – | 0.056 | 0.0627 | – | 0.063 | 0.0462 | 0.0242 | 0.0729 | 0.0563 | 0.0636 | – | 0.0595 |
